Screen size: about 310,000 compounds; about 14,000 (4.5%) showed an effect of 50% or more. Effects have a minus sign here. This is one part of the list.
These molecules were tested against human ether-à-go-go-related gene (hERG) potassium channel (human, UniProt Q12809) (assay: primary screen, population patch clamp on CHO cells stably expressing hERG).
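Also: peak tail current of the secondary pulse compared with the same well before compound.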

human ether-à-go-go-related gene (hERG) potassium channel, sequence (Q12809 whole entry, looked up): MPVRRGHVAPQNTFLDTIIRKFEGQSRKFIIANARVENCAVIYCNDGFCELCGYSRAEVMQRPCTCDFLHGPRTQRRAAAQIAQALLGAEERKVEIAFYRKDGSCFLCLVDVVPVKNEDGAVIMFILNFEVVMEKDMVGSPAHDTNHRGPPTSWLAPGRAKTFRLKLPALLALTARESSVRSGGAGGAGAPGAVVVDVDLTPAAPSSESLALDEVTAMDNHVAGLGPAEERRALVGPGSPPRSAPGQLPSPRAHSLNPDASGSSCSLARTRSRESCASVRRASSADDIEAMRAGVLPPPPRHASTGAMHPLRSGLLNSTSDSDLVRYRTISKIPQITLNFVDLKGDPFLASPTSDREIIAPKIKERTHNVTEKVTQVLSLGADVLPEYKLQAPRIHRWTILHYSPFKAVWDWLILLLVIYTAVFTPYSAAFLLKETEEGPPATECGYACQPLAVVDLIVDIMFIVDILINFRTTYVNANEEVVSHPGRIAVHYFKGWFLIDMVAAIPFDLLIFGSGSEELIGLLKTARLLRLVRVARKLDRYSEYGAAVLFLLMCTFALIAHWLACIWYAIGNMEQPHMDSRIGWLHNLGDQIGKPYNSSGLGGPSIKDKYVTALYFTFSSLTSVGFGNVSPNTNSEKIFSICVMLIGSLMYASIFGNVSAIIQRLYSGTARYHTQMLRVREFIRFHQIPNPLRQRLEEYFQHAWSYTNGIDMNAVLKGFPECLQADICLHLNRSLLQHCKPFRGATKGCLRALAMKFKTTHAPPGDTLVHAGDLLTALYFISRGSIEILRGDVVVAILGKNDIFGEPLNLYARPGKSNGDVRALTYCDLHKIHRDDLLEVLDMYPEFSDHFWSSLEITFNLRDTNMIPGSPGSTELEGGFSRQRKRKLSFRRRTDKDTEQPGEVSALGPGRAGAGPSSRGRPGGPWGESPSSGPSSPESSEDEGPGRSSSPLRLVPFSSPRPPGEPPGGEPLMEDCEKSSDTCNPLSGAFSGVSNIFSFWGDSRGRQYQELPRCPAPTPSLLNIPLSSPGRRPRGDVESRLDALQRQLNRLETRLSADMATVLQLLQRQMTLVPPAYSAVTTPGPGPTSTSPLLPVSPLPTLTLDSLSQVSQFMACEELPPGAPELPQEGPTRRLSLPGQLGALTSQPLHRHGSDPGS

Row | Compound | hERG current change (%, negative = inhibition) at 10uM [%]
1 | Cc1nc([N+](=O)[O-])c(NCCCO)n1Cc1ccccc1 | 9.21
2 | CC(NCC(=O)Nc1ccccc1C(=O)NC1CC1)c1ccc(S(N)(=O)=O)cc1.O=C(O)C(=O)O (stereo not drawn) | -12.6
3 | CCN1/C(=C2/SC(=S)N(NC(C)=O)C2=O)Sc2ccc(Cl)cc21 | -13.2
4 | CC(C)c1ccc(/C=N/n2nnnc2Nc2ccccc2)cc1 | 12.4
5 | Cc1ccccc1Cn1nc(C)c(NC(=O)/C=C/c2cnn(C)c2)c1C | 19.8
6 | CCCCNC(=O)[C@H]1N2C(=O)c3c(ccc(OC)c3OC)C2SC1(C)C (stereo partly drawn) | 12.8
7 | COc1ccc(-n2sc3ccc(F)cc3c2=O)cc1 | 11.9
8 | CCCCn1c(N)c(N(CC(C)C)C(=O)COC(=O)C2(c3ccccc3)CC2)c(=O)[nH]c1=O | 14
9 | O=C(NCc1ccco1)c1nc2c(nnn2Cc2cccc(Cl)c2)c(=O)[nH]1 | 3.4
10 | CCOc1ccc(Oc2ccc(S(=O)(=O)N3CCOCC3)cc2NC(=O)CCNC(C)=O)cc1 | -5.91
11 | Cc1ccc(OCC(=O)NNC(=O)C2CC(=O)N(c3ccc4c(c3)OCCO4)C2)cc1 (stereo not drawn) | -4.74
12 | COc1ccc(/C=N/OC(=O)Nc2ccc(Cl)cc2)c(OC)c1 | 15.2
13 | COCCN1CC(CNC(=O)c2cc(COc3ccccc3SC)on2)CC1=O (stereo not drawn) | -12.1
14 | CCCN1C2CCCC1CC(NC(=O)Nc1cccc(C(C)=O)c1)C2 (stereo not drawn) | -5.62
15 | CCOc1ncccc1C(=O)Nc1ccc2nc(C)sc2c1 | 10.3
16 | Cc1ccc(OCc2ccc(C(=O)Nc3cc(C)on3)o2)c([N+](=O)[O-])c1 | 16.8
17 | C[C@@H](OC(=O)N(C)Cc1ccccc1)[C@H]1O[C@]2(C)CCCC[C@H]1O2 | 12
18 | CCN1CCN(c2ccc(S(=O)(=O)N3CCOCC3)cc2NC(=O)c2ccc(F)cc2Cl)CC1 | -35.7
19 | CC12CCC(=O)N1C(C(=O)NNC(=O)c1ccc(Br)cc1)CS2 (stereo not drawn) | -8.4
20 | COc1cccc(CCc2nnc(N)s2)c1 | 16.7
21 | CC(NC(=O)c1ccc(Cl)cc1)C1CC2CCC1C2 (stereo not drawn) | 2.08
22 | COc1ccc(/C=C/C(=O)Nc2ccc(N3CCOCC3)cc2)cc1 | 10.1

Row | Compound | hERG current change (%, negative = inhibition) at 10uM [%]
23 | COc1ccc(N2CCN(C(=O)CSc3nnc4c(C)cc5ccccc5n34)CC2)cc1 | -8.51
24 | C/C(CCc1ccco1)=N/NC(=O)CCC(=O)Nc1cccc(Cl)c1 | 8.56
25 | Cc1ccc(NC(=O)c2cc(S(=O)(=O)N3CCOCC3)cn2C)cc1Cl | 11.2
26 | CC1=NC(C)(C)Cc2cc(C)c(C)cc21.Cl | -9.62
27 | O=C(CN1C(=O)S/C(=C\c2ccccc2Cl)C1=O)NC1C=CS(=O)(=O)C1 (stereo not drawn) | 11.7
28 | COc1ccc(C2C(CN3CCOCC3)C(=O)N2c2ccccc2)cc1 (stereo not drawn) | 9.52
29 | COc1ccccc1NC(=O)COC(=O)c1ccccc1SCC(=O)N1CCCC1 | 20.2
30 | CCCCCCCCCCCCCCCC(=O)NCCc1c[nH]c2ccccc12 | 7.6
31 | O=C1CCCc2nc(N3CCN(C(c4ccccc4)c4ccccc4)CC3)ncc21 | -7.92
32 | CCc1ccccc1NC(=O)CC(=O)Nc1ccccc1CC | 29.5
33 | Cc1ccccc1Sc1ccc([N+](=O)[O-])cn1 | 3.63
34 | COc1ccccc1NC(=O)c1oc2ccccc2c1NC(=O)c1cc(OC)c(OC)c(OC)c1 | 15.2
35 | Oc1ccc(Br)cc1C=Nc1ccc(Cl)cc1 | 16.6
36 | Cc1ccc[n+](-c2nc([O-])sc2C=O)c1 | 16.9
37 | CCN1CCN(c2ccc([N+](=O)[O-])cc2C(=O)OC)CC1 | -63.7
38 | COC1(OC)N=C(N)C2(C#N)C(c3ccc(F)cc3)C12C#N (stereo not drawn) | 5
39 | O=C(Nc1nc2c(F)cccc2s1)c1ccco1 | -3.85
40 | O=C(Nc1nc(-c2cc3ccccc3oc2=O)cs1)c1ccc(Br)o1 | 3.03
41 | O=S(=O)(Nc1ccc(Br)cc1)c1cccc2cccnc12 | 17.9
42 | NS(=O)(=O)c1ccc(NC(=O)c2ccc(F)cc2F)c(NC(=O)c2ccc(F)cc2F)c1 | 4.83
43 | Cc1cc(C2(O)C(=O)Nc3ccccc32)ccc1F (stereo not drawn) | 15.8
44 | CCCCC(CC)C(=O)Nc1ccccc1C(=O)NC(C)C (stereo not drawn) | -11.6

Row | Compound | hERG current change (%, negative = inhibition) at 10uM [%]
45 | CN(C)c1ccc(/C=C(\NC(=O)c2ccccc2)C(=O)NCc2cccnc2)cc1 | -18.9
46 | Cc1ccc(-n2c(SCn3nnc4ccccc4c3=O)nnc2-c2cccnc2)c(C)c1 | -39.3
47 | O=C(Nc1cccc(F)c1)C1CCN(S(=O)(=O)c2cccc3nonc23)CC1 | -4.67
48 | Nc1cc(N)nc(SCCN2CCCCC2)n1 | 3.07
49 | COc1ccccc1C(C)Nc1nc(-c2cccnc2)nc2ccccc12 (stereo not drawn) | 12.8
50 | CC(Sc1nnc(-c2cccnc2)n1N)C(=O)N1CCOCC1 (stereo not drawn) | 2.34
51 | Cc1noc(C)c1C(=O)NNc1cc(Cl)ccc1Cl | 1.13
52 | CC1CCCC(NC(=O)COC(=O)c2ccccc2NC(=O)c2ccco2)C1C (stereo not drawn) | -3.75
53 | COc1ccccc1-c1ccc(SCc2ccc(C)cc2)nn1 | 12.1
54 | Cc1ccc(NC(=S)NC(=O)c2cncc(Br)c2)cc1Cl | -1.16
55 | Cc1cccc(NC(=O)c2nnn(-c3cccc(C(F)(F)F)c3)c2N)c1 | 15.8
56 | O=c1[nH]c2ccccc2nc1C(Cl)c1ccccc1 (stereo not drawn) | 2.52
57 | COC(=O)[C@@H]1CCCN1C(=O)CCc1nnc(C2CCCCC2)o1 | 6.94
58 | COC(=O)c1sc(N)c(C(=O)OC)c1CSc1nnc(-c2ccccc2Cl)n1C | -24.5
59 | CCOC(=O)c1c(NC(=O)C[n+]2ccc(Cc3ccccc3)cc2)sc(C)c1C.[Cl-] | -43.5
60 | C/C(CC(=O)NC1CCCC1)=N\NC(=O)c1ccc([N+](=O)[O-])c(Cl)c1 | 5.66
61 | Cc1cc(C)nc(SCC(=O)Nn2cnnc2)n1 | 18.9
62 | Cc1cc(NC(=O)C2CC(c3ccc(F)cc3)=NO2)n(-c2ccccc2)n1 (stereo not drawn) | -11.1
63 | COc1ccc(C(=O)C(C)[n+]2ccc(C)c3ccccc32)cc1[N+](=O)[O-].[Br-] (stereo not drawn) | 4.94
64 | CN1CCN(c2ccccc2NC(=O)c2ccc(N3CCOCC3)c([N+](=O)[O-])c2)CC1 | -14.5
65 | Cc1ccc(C)n1-n1cnc2sc(-c3ccccc3)cc2c1=O | -9.99
66 | O=C(CCn1c(=O)c2sccc2n(CC(=O)OCc2ccccc2)c1=O)NCc1ccco1 | -50

Row | Compound | hERG current change (%, negative = inhibition) at 10uM [%]
67 | CCCCNC(=O)c1c[nH]c2ccc(S(=O)(=O)Nc3ccc(OCC)cc3)cc2c1=O | 10.3
68 | O=C(c1ccco1)N1N=C(c2ccccc2)CC1c1ccc2nccnc2c1 (stereo not drawn) | -45
69 | CN(C)c1ccc(S(=O)(=O)N2CCCCC2)cc1NC(=O)C1=COCCO1 | -10.2
70 | Cc1ccc(-n2nc(C)c3c2OC(N)=C(C#N)C3c2ccc(F)cc2)cc1 (stereo not drawn) | 3.29
71 | CC(C)c1ccc(S(=O)(=O)N2CCN(C(=O)CCNS(=O)(=O)c3ccccc3F)CC2)cc1 | -12.9
72 | CN(C)S(=O)(=O)c1cc(NC(=O)COC(=O)CCSc2ccc(Cl)cc2)ccc1Cl | 2.72
73 | COc1ccc(CNCCc2ccccc2F)c(OC)c1C.O=C(O)C(=O)O | -31.3
74 | CC(C)N1CCc2c(sc(NC(=S)NC(=O)c3ccccc3)c2C#N)C1 | 16.9
75 | COCCCNC(=O)c1ccccc1-c1cc(C)no1 | 13.9
76 | CCCCc1cc(=O)oc2cc(OC3CCCCC3=O)ccc12 (stereo not drawn) | 21.7
77 | Cl.c1csc(CNCCCN2CCOCC2)c1 | 15.6
78 | COc1ccccc1-n1cnc2cc(NCc3ccco3)ccc21 | -20.7
79 | COc1ccc(C(=O)COC(=O)Cn2cnc3c2c(=O)n(C)c(=O)n3C)c(OC)c1 | 3.76
80 | OCC[C@H]1C[C@@H](O)[C@H](O)[C@@]2(CCCO2)O1 | 12.5
81 | COc1ccc(-n2c(SCC(=O)Nc3ccccc3)nnc2-c2ccoc2C)cc1 | -71.8
82 | CCN(CC)C(=O)CSc1nsc(SCC(=O)N(CC)CC)c1C#N | 8.73
83 | Cc1cc(NCc2ccccn2)n2nc(C)c(-c3ccc(Cl)cc3)c2n1 | 14.2
84 | CSc1ccc(S(=O)(=O)N2CCC(C(=O)NCc3ccncc3)CC2)cc1 | -30.5
85 | COc1ccc(C2=NOC(C(=O)N3CCCc4ccccc43)C2)cc1 (stereo not drawn) | -15.9
86 | O=C(CCC1CCCN(C(=O)c2ccc3c(c2)OCO3)C1)N1CCN(c2ccccn2)CC1 (stereo not drawn) | -9.38
87 | N/C(=N\OC(=O)Cc1ccccc1[N+](=O)[O-])c1cccc(Br)c1 | -2.01

— PMC4336329 (PLoS ONE, 2015)
